# Measured values as given in PubChem BioAssay AID1468 (National Center for Advancing Translational Sciences (NCATS), 2008).
# Out of some 280,000 compounds screened, about 1,100 (0.39%) were called active. The shares of active, inactive and inconclusive entries below differ from those in the screen. Calls follow the shape of the dose curve; as a rule, active = well fitted inhibition curve with a large enough effect; inconclusive = small, poorly fitted or top-dose-only effect, or effect the other way; inactive = flat fitted curve, though single readings scatter. No potency is given beside an inconclusive call; the fits are too rough.
# Target: Microtubule-associated protein tau (Homo sapiens) (UniProt P10636)
# UniProt P10636, sequence (P10636 whole entry, looked up): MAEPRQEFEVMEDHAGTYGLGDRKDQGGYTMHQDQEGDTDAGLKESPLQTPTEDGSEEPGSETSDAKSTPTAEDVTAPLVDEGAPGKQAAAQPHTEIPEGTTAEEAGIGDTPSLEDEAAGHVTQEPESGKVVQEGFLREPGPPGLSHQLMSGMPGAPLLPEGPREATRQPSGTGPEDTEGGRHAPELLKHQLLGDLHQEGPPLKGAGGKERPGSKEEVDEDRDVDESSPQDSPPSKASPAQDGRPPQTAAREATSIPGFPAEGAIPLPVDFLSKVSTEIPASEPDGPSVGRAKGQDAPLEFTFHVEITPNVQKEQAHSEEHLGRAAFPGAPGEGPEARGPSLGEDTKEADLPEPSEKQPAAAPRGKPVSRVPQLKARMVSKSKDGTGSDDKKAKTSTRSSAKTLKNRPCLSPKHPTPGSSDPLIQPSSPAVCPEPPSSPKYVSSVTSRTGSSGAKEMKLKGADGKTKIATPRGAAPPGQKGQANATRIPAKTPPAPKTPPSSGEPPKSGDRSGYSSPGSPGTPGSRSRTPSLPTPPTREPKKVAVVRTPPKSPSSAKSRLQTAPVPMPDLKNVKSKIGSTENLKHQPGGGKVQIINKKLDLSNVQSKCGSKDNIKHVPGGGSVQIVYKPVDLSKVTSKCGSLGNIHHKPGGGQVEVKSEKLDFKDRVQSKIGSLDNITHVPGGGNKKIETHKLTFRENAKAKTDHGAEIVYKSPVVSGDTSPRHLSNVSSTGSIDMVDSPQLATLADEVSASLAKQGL
# Assay: qHTS for Inhibitors of Tau Fibril Formation, Fluorescence Polarization; also: nearly all actives have a fitted effect of over 55% in size
# Conditions: K18 P301L tau heparin fibrillization, Alexa594 FP, 6 h; series mostly up to 57.7 µM; activity, negative = inhibition: at the top concentration
# Method in brief: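 Read-out: fluorescence polarization of Alexa 594-labeled tau (0.24 uM), 555 nm excitation, 632 nm emission. Mixtures held 15 uM unlabeled K18 P301L, compound and 20 uM heparin, pH 7 acetate buffer, incubated 6 hr at 37 C.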
# % is scaled to controls: 0 for no effect and ±100 for the full control effect; potency is read from the fitted curve at half-maximal effect; tags tell the direction and shape of the fitted curve.
SMILES,Potency,"activity, negative = inhibition"
CCN(CC)c1cc(NCCO)c([N+](=O)[O-])c2nonc12,"inconclusive [inhibitor, partial curve]",
CCOC(=O)/C(C#N)=C1\SS/C(=C(/C#N)C(=O)OCC)S1,active: 6.31 µM,
COc1ccccc1NC(=S)Nc1cccc2cnccc12,"inconclusive [inhibitor, single point]",
O=C(Nc1ccc(Br)cc1)c1ccc(F)c(S(=O)(=O)N2CCc3ccccc32)c1,"inconclusive [inhibitor, partial curve]",
Cc1cccc(N2C(=O)C(Oc3ccc(Cl)cc3Cl)C2C(=O)O)c1C (stereo not drawn),"inconclusive [activator, single point]",
Cc1ccc(CN2CCN(C3CCN(C(=O)Nc4ccc(C)cc4Cl)CC3)C(=O)C2=O)cc1,"inconclusive [inhibitor, single point]",
Cc1cc2cc(C(c3nnnn3CC3CCCO3)N3CCCc4ccccc43)c(=O)[nH]c2cc1C (stereo not drawn),,inactive: -6.55%
CSc1cccc(NC(=O)Nc2ccc(Cl)cc2)c1,"inconclusive [inhibitor, partial curve]",
CCOC(=O)c1[nH]c2ccc(OC)cc2c1NC(=O)CN1CCc2ccccc2C1,"inconclusive [activator, partial curve]",
CCOC(=O)c1ccc(CNCc2ccccc2)cc1,,inactive: 8.87%
COC(=O)c1c(NS(=O)(=O)c2ccc3ccccc3c2)sc2c1CCCC2,"inconclusive [activator, single point]",
CCN(CC)c1ccc(/C=C2/C(=O)c3ccc(C(=O)O)cc3C2=O)cc1,"inconclusive [inhibitor, partial curve, poor fit]",
O=C(NCCN1CCN(Cc2ccccc2)CC1)Nc1cc(Cl)cc(Cl)c1,"inconclusive [inhibitor, partial curve]",
C[C@@H]1CC[C@@H]2C(=O)N3[C@@H](CC[C@@H](C)[C@@H]3c3ccc(-c4ccco4)cc3)C(=O)N2[C@H]1c1ccc(-c2ccco2)cc1,,inactive: -3.6% [at 11.6 µM]
Cc1ccc(CN2CCN(C3CCNCC3)C(=O)C2=O)cc1,,inactive: 0.735%
S=C(NCCc1ccccc1)Nc1cccc2cnccc12,,inactive: -10.7%
Cc1nc(SCC(=O)Nc2ccc(F)cc2)c2oc3ccccc3c2n1,"inconclusive [inhibitor, full curve]",
CCc1ccc(NC(=O)Cn2c(=O)n(-c3ccc(OC)cc3)c(=O)c3ccc(C(=O)NCc4ccc(C)cc4)cc32)cc1,"inconclusive [inhibitor, full curve]",
